For 44 molecules, viability index results are on record in the supplement of paper PMC4723716.

± gives the uncertainty stated by the source. The full ranking holds about 9,900 compounds; the median of “viability index relative to DMSO control” is about 1, and the lowest 2% start at about 0.85. Some of the results follow.

The experiment deals with Plasmodium falciparum NF54 stage V gametocytes. The experiment in a line: viability index relative to DMSO control (fraction); higher = less gametocyte killing. The settings on record: 2.5 µM, library set: Broad Institute DOS, incubation time: 72 h. In short, it runs like this: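 Stage V gametocytes of P. falciparum NF54 were held in serum-free screening medium at 0.75% gametocytemia and 1.25% hematocrit, 10 µl per well of a 1,536-well plate, and exposed to compound at 2.5 µM for 72 hr at 37°C under low oxygen. A 3 µl mix of 2.5 µM MitoTracker Red CMXRos with 0.13% saponin was then added for one to two hours, after which one field per well was imaged and red particles of 20–70 µm2 were counted. The viability index equals this count divided by the plate mean from wells given solvent alone.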
`O=C(C[C@H]1C=C[C@H](NC(=O)Nc2ccc3c(c2)OCO3)[C@@H](CO)O1)NCCCN1CCOCC1` registered a viability index of 1.03 ± 0.07.
`COc1ccc(C[C@@H]2CCn3nncc3COCCCNC2=O)cc1`: the viability index stood at 0.969 ± 0.01.
Then `C[C@@H]1CCCCO[C@@H](CN(C)S(C)(=O)=O)[C@H](C)CN([C@H](C)CO)C(=O)c2cc(NC(=O)NC3CCCCC3)ccc2O1`, with 1.14 ± 0.091; and `COc1ccc2c3c([nH]c2c1)[C@@H](CO)N(C[C@]31CN(C1)C(=O)Nc1cccc(F)c1)C(=O)c1cccnc1`, with 1.05 ± 0.027.
Then `CC(C)CC#Cc1ccc([C@H]2[C@H]3CN(C(=O)c4ccccn4)CC(=O)N3[C@H]2CO)cc1`, with 1.04 ± 0.021; and `COc1cccc(CN2CC3(C2)[C@H](c2ccccc2)[C@@H](CO)N3Cc2ccccc2OC)c1`, with 0.914 ± 0.013.
Then `C/C=C/c1ccc2c(c1)[C@H]1[C@H](CCN1S(=O)(=O)c1ccccc1F)[C@H](CO)N2`, with 0.955 ± 0.038; and `Cc1ccccc1S(=O)(=O)N1C[C@H](O)COC[C@@H]2O[C@@H](CC(=O)N3CCCCC3)CC[C@H]21`, with 0.983 ± 0.07.
`C[C@@H]1CN([C@@H](C)CO)C(=O)CCCn2nncc2CO[C@H]1CN(C)Cc1ccc(C(=O)Nc2ccccc2N)cc1` gave a viability index of 1.078 ± 0.0086.
Then `O=C(O)C[C@H]1C[C@H]2c3cc(NC(=O)Cc4ccncc4)ccc3O[C@H]2[C@H](CO)O1`, with 1.055 ± 0.0026; and `O=C1NCCOCc2cn(nn2)CCC[C@@H]1Cc1ccccc1`, with 0.943 ± 0.024.
As for `O=C(C1CCOCC1)N1CC(=O)N2[C@H](CO)[C@H](c3ccc(/C=C/c4ccccc4)cc3)[C@@H]2C1`, the figure is 0.99 ± 0.011; as for `C/C=C/c1ccc2n(c1=O)C[C@H]1[C@H](CO)[C@@H](C(=O)NCc3ccccc3Cl)N(S(C)(=O)=O)[C@@H]21.C/C=C\c1ccc2n(c1=O)C[C@H]1[C@H](CO)[C@@H](C(=O)NCc3ccccc3Cl)N(S(C)(=O)=O)[C@@H]21`, 1.08 ± 0.025.
As for `O=C(C[C@@H]1CC[C@@H]2[C@H](COC[C@@H](O)CN2Cc2ccc(F)cc2)O1)NCCc1ccccc1`, the figure is 1.04 ± 0.019.
`C/C=C/c1ccc([C@@H]2[C@H]3CN(Cc4ccc(F)cc4)CC(=O)N3[C@H]2CO)cc1`: the viability index stood at 1.08 ± 0.022.
`COc1cccc(S(=O)(=O)Nc2ccc3c(c2)C(=O)N(C)C[C@H](OC)[C@@H](C)CN(Cc2ccccc2F)[C@@H](C)CO3)c1` showed a viability index of 1.02 ± 0.064.
In turn, `Cc1noc(C)c1NC(=O)N1C[C@@H](O)COC[C@H]2O[C@H](CC(=O)N[C@@H]3CCN(Cc4ccccc4)C3)CC[C@@H]21` showed a viability index of 1.02 ± 0.082.
As for `Cc1noc(C)c1NC(=O)Nc1ccc2c(c1)C(=O)N([C@@H](C)CO)C[C@H](C)[C@H](CN(C)Cc1ccc3c(c1)OCO3)OCCCC[C@H](C)O2`, the figure is 1.16 ± 0.13; as for `C/C=C/c1ccc([C@H]2[C@@H](CO)N(C(=O)CC)[C@@H]2CN(C(=O)C2CC2)C(C)C)cc1`, 1.03 ± 0.013; as for `COc1cccc(-c2ccccc2[C@@H]2[C@@H](CO)N(C(=O)Cc3ccccc3)[C@H]2C#N)c1`, 1.17 ± 0.13.
Then `COc1ccc2c3c([C@H](CO)N(C)C[C@]33CCN(CC3)C(=O)NC(C)C)n(C)c2c1`, with 1.05 ± 0.057; and `COc1ccc(NC(=O)N(C)C[C@@H]2Oc3ccc(NC(=O)CCN4CCOCC4)cc3C(=O)N([C@H](C)CO)C[C@H]2C)cc1`, with 1.02 ± 0.072.
As to `O=C(Nc1ccccc1F)N1CC(=O)N2[C@@H](CO)[C@@H](c3ccc(-c4cccnc4)cc3)[C@@H]2C1`, the viability index worked out at 1.113 ± 0.0028.
Molecule `COCC(=O)Nc1ccc2c(c1)C(=O)N(C)[C@H]1CC[C@@H](CC(=O)N3CCc4ccccc4C3)O[C@H]1CO2` showed a viability index of 0.961 ± 0.025.
As for `O=C(Cc1ccccn1)N1CC2(C1)[C@H](c1ccccc1)[C@H](CO)N2C(=O)c1ccncc1`, the figure is 1.08 ± 0.055; as for `COc1ccc(C(=O)N2C[C@@H]3[C@H](c4ccccc42)[C@@H](CO)N3Cc2ccccc2Cl)cc1`, 1.01 ± 0.042; as for `O=C(c1cccnc1)N1CC(=O)N2[C@H](C1)[C@@H](c1ccc(-c3ccccc3F)cc1)[C@@H]2CO`, 1.06 ± 0.032.
Then `CS(=O)(=O)Nc1ccc2c(c1)[C@@H]1C[C@H](CC(=O)NCCc3ccccc3)O[C@@H](CO)[C@@H]1O2`, with 1.06 ± 0.12; and `CCN1CC(=O)N2[C@H](CO)[C@@H](c3ccc(Br)cc3)[C@@H]2C1`, with 0.886 ± 0.052.
Then `Cc1cccc(S(=O)(=O)N2[C@@H]3CNC[C@H]2[C@@H]3c2ccc(-c3cncnc3)cc2)c1`, with 1.0665 ± 0.00061; and `Cc1ccccc1-c1ccc([C@@H]2[C@H](CO)N3CCCCN(S(=O)(=O)Cc4ccccc4)C[C@@H]23)cc1`, with 0.74 ± 0.039; and `N#C[C@H]1[C@@H](c2ccccc2C2=CCCCC2)[C@H](CO)N1S(=O)(=O)c1ccccc1`, with 1.1 ± 0.17.
Molecule `CCCNC(=O)N1C[C@@H]2[C@H](c3ccccc31)[C@@H](CO)N2Cc1cccc(OC)c1` displayed a viability index of 0.953 ± 0.02.
As for `C[C@@H]1CN([C@H](C)CO)C(=O)c2cc(NS(=O)(=O)c3cccs3)ccc2O[C@@H](C)CCCCO[C@H]1CN(C)Cc1ccc(Cl)c(Cl)c1`, the figure is 0.921 ± 0.047; as for `Cc1ccc(S(=O)(=O)Nc2cccc3c2O[C@H](CN(C)C(=O)Nc2ccc(C(F)(F)F)cc2)[C@@H](C)CN([C@@H](C)CO)C3=O)cc1`, 1.06 ± 0.054; as for `O=C(C[C@@H]1CC[C@@H]2[C@H](COC[C@H](O)CN2Cc2ccc(C(F)(F)F)cc2)O1)N1CCc2ccccc2C1`, 1.078 ± 0.0039.
As for `COC(=O)C[C@H]1CC[C@H]2[C@@H](COC[C@@H](O)CN2S(=O)(=O)c2cn(C)cn2)O1`, the figure is 1.07 ± 0.016.
For the molecule `O=C(C[C@H]1CC[C@H]2[C@@H](COC[C@H](O)CN2S(=O)(=O)c2ccccc2)O1)NCC1CCCCC1`, the viability index turned out to be 1.11 ± 0.076.
Then `CO[C@@H]1CN(C)C(=O)c2ccc(NC(C)=O)cc2OC[C@@H](C)N(C(=O)c2cnccn2)C[C@H]1C`, with 1.09 ± 0.065.
Then `C/C=C/c1cnc2c(c1)C(=O)N([C@@H](C)CO)C[C@H](C)[C@@H](CN(C)CC1CCOCC1)O2`, with 1.02 ± 0.037; and `C/C=C/c1ccc([C@@H]2[C@@H](CO)N(CCC(F)(F)F)C23CN(C(=O)CC2CC2)C3)cc1`, with 0.951 ± 0.035.
For the molecule `CN(C)CC(=O)N1CC2(C1)[C@H](c1ccccc1)[C@H](CO)N2S(C)(=O)=O`, the viability index was 1.11 ± 0.033.
With `CN1C(=O)c2cc(NS(=O)(=O)c3cccc(F)c3)ccc2OC[C@@H]2O[C@H](CC(=O)NCCN3CCCCC3)CC[C@H]21`, the viability index was 0.941 ± 0.053.
Take `COc1ccccc1-c1cnc2c(c1)C(=O)N([C@H](C)CO)C[C@@H](C)[C@H](CN(C)C(=O)CC1CC1)O2`: the viability index amounted to 1.01 ± 0.03.
